The list shows a part of the results. The list includes weakly bound sequences.

This test deals with MaxL homodimer (UniProt P61244). Kind of test: universal protein-binding microarray (PBM). The following applies: PBS-based mixture, 10 nM His-tagged protein dimer, 2% milk, 200 ng/uL BSA, 50 ng/uL salmon testes DNA, 0.02% TX-100; detection with Alexa 488 anti-His …; high values mean tight binding; most listed sequences are background and not binding sites; double strand, one strand shown.
Sequence of UniProt P61244 (P61244 whole entry): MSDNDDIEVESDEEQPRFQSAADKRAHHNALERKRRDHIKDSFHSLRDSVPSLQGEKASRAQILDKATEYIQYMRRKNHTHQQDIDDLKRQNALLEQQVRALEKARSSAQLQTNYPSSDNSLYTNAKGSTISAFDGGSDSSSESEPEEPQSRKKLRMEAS
Consider AGCGGGAG, for which the binding signal (normalized occupancy) is 0.075.

Consider CGAATCCC, for which the binding signal (normalized occupancy) is 0.075.

As to TGATAACA, the binding signal (normalized occupancy) was 0.0843.

Consider TCACATCA, for which the binding signal (normalized occupancy) was 0.0817.

For the sequence CAACTGTC, the binding signal (normalized occupancy) came out at 0.0726.

Regarding TCTTGACA, the binding signal (normalized occupancy) was 0.0744.

On to GTGAAACA, for which the binding signal (normalized occupancy) came out at 0.0781.

Turning to CCAGGGCA, the binding signal (normalized occupancy) worked out at 0.0702.

Regarding CGAGGCGA, the binding signal (normalized occupancy) was 0.0704.

As to ACGACGGA, the binding signal (normalized occupancy) was determined as 0.0742.

In the case of CAAATATC, the binding signal (normalized occupancy) stood at 0.0777.

For AACATGAA, the binding signal (normalized occupancy) came out at 0.0878.

TAAGTCCA: the binding signal (normalized occupancy) stood at 0.0677.

Take CCGGTTAG: the binding signal (normalized occupancy) came out at 0.0736.

As for TATTAATA, the binding signal (normalized occupancy) was determined as 0.0848.

As for CCTAGAAA, the binding signal (normalized occupancy) is 0.0717.

CTTTAAAA: the binding signal (normalized occupancy) is 0.0708.

Take GTTCAATA: the binding signal (normalized occupancy) turned out to be 0.0838.

Take GTAACACA: the binding signal (normalized occupancy) stood at 0.0828.

For the sequence TAGGGATA, the binding signal (normalized occupancy) stood at 0.079.

Take CCCGACGC: the binding signal (normalized occupancy) came to 0.0707.

As for ACGGCCTC, the binding signal (normalized occupancy) came to 0.0653.

Regarding TTATAAAA, the binding signal (normalized occupancy) was determined as 0.0756.

For TGTTAGAA, the binding signal (normalized occupancy) was found to be 0.082.

On to CGGCAACG, for which the binding signal (normalized occupancy) was found to be 0.074.

For the sequence CTCCCGGA, the binding signal (normalized occupancy) was determined as 0.0662.

Regarding CTTGCCGC, the binding signal (normalized occupancy) turned out to be 0.0715.

As to GCAGTGGA, the binding signal (normalized occupancy) was determined as 0.0724.

Regarding TAGAAGGA, the binding signal (normalized occupancy) was 0.0744.

Consider TGAAGCAA, for which the binding signal (normalized occupancy) was 0.0784.

As for CTTAGTTC, the binding signal (normalized occupancy) came out at 0.0705.

Turning to AACAATTG, the binding signal (normalized occupancy) is 0.0699.

For the sequence GAGATGGC, the binding signal (normalized occupancy) came out at 0.0747.

For GCCCCGCA, the binding signal (normalized occupancy) was found to be 0.075.

Consider GCAACTGA, for which the binding signal (normalized occupancy) is 0.0721.

In the case of GTTCGAAA, the binding signal (normalized occupancy) is 0.0748.

Consider CGGAAAAG, for which the binding signal (normalized occupancy) came to 0.0691.

On to ATAGTTAC, for which the binding signal (normalized occupancy) was 0.0811.

For the sequence TAGGATCA, the binding signal (normalized occupancy) is 0.0832.

In the case of CCCCAGGC, the binding signal (normalized occupancy) is 0.0696.

Consider CTTAAGAC, for which the binding signal (normalized occupancy) was 0.0718.

In the case of CAGCATAA, the binding signal (normalized occupancy) came out at 0.0808.

For the sequence AACCTAGC, the binding signal (normalized occupancy) is 0.0694.

Regarding ACAGCCCT, the binding signal (normalized occupancy) stood at 0.0731.

For the sequence ATGCGGAG, the binding signal (normalized occupancy) is 0.0844.

With ATACCAGC, the binding signal (normalized occupancy) amounted to 0.076.

Regarding ACCTGTCG, the binding signal (normalized occupancy) turned out to be 0.0794.

In the case of ACAAAGGC, the binding signal (normalized occupancy) came to 0.0748.

Regarding CGCCGAAA, the binding signal (normalized occupancy) was determined as 0.0723.

Take CAGGGCCA: the binding signal (normalized occupancy) was found to be 0.0682.

For the sequence ACCAAGCG, the binding signal (normalized occupancy) amounted to 0.0722.

For the sequence AGGGGGGC, the binding signal (normalized occupancy) was found to be 0.0735.

Regarding ATTGTATG, the binding signal (normalized occupancy) came out at 0.0787.

For CGTATTTC, the binding signal (normalized occupancy) was determined as 0.0733.

Regarding CTTGCAAA, the binding signal (normalized occupancy) turned out to be 0.0707.

As for CAAACCGG, the binding signal (normalized occupancy) came to 0.0699.

For CCCACTCA, the binding signal (normalized occupancy) stood at 0.0811.

As to AGATTCTC, the binding signal (normalized occupancy) was 0.0727.

Turning to CTGGTCAA, the binding signal (normalized occupancy) was 0.0758.

For the sequence CAGACTCC, the binding signal (normalized occupancy) worked out at 0.0711.

Turning to GTTCTCCA, the binding signal (normalized occupancy) is 0.0767.

For the sequence AAGATGGA, the binding signal (normalized occupancy) amounted to 0.0778.

Take CGTCACAC: the binding signal (normalized occupancy) was 0.0847.

For ATGCATAA, the binding signal (normalized occupancy) was determined as 0.0852.

In the case of GGAATACC, the binding signal (normalized occupancy) was determined as 0.0749.

Take TACGCAGA: the binding signal (normalized occupancy) worked out at 0.0734.

On to CCTATACA, for which the binding signal (normalized occupancy) came to 0.0875.

Take GGACCTAC: the binding signal (normalized occupancy) is 0.07.

In the case of CAACGACG, the binding signal (normalized occupancy) was 0.0689.

Consider CGCGTAAC, for which the binding signal (normalized occupancy) was 0.0752.

With CATCTCGG, the binding signal (normalized occupancy) was 0.0691.

For the sequence GCCCAGAA, the binding signal (normalized occupancy) came out at 0.0711.

With AATACATG, the binding signal (normalized occupancy) is 0.0934.

Regarding AAGTAGAC, the binding signal (normalized occupancy) is 0.0735.

Take CCAGACCA: the binding signal (normalized occupancy) worked out at 0.0787.

Turning to ATGGCGAG, the binding signal (normalized occupancy) amounted to 0.0825.

As for CTCACCCA, the binding signal (normalized occupancy) came out at 0.0813.

With CGTTCTGC, the binding signal (normalized occupancy) worked out at 0.0681.

As to AACGGATC, the binding signal (normalized occupancy) was 0.0724.

For the sequence ATCGTCAA, the binding signal (normalized occupancy) came out at 0.0733.

As to GACCGGGC, the binding signal (normalized occupancy) turned out to be 0.0681.

In the case of CAAGCCAC, the binding signal (normalized occupancy) was determined as 0.073.

Take CAGTGGAC: the binding signal (normalized occupancy) came out at 0.0709.

For GTTCCAAC, the binding signal (normalized occupancy) was found to be 0.0734.

Turning to GTTCACGA, the binding signal (normalized occupancy) worked out at 0.0769.

Regarding AGTAAGCG, the binding signal (normalized occupancy) was determined as 0.0712.

As for GAATATGA, the binding signal (normalized occupancy) is 0.0824.

As to CCCGGTCA, the binding signal (normalized occupancy) is 0.0714.

For the sequence AGTGTTTA, the binding signal (normalized occupancy) was determined as 0.0765.

With GCAAAGGA, the binding signal (normalized occupancy) was found to be 0.0773.

For GAGGTGGC, the binding signal (normalized occupancy) turned out to be 0.0764.

ATATGTTC: the binding signal (normalized occupancy) worked out at 0.0831.

Turning to TCCCTCCA, the binding signal (normalized occupancy) came out at 0.075.

Take AATGGTTG: the binding signal (normalized occupancy) is 0.0726.

As for ACGATAGT, the binding signal (normalized occupancy) turned out to be 0.0776.

On to CGAAGCGA, for which the binding signal (normalized occupancy) was found to be 0.0654.

With CCGATCGG, the binding signal (normalized occupancy) was found to be 0.0714.

With CAATAACC, the binding signal (normalized occupancy) stood at 0.0764.

Turning to ACTCACTA, the binding signal (normalized occupancy) is 0.075.

Turning to ACAATTCA, the binding signal (normalized occupancy) stood at 0.0745.

Consider AAAGCACA, for which the binding signal (normalized occupancy) is 0.0821.

On to AGTTACAA, for which the binding signal (normalized occupancy) is 0.078.

With GTTAAACA, the binding signal (normalized occupancy) came out at 0.0748.

Consider AGTTAAAG, for which the binding signal (normalized occupancy) was 0.0717.

Consider ATACCGTG, for which the binding signal (normalized occupancy) was 0.0839.

Take CAGCGCCG: the binding signal (normalized occupancy) came out at 0.0666.

ATTGCGAA: the binding signal (normalized occupancy) was 0.074.

On to CTTCTCCC, for which the binding signal (normalized occupancy) came out at 0.0744.

Consider ACCGCTGC, for which the binding signal (normalized occupancy) amounted to 0.0713.

As to CGCCGTCC, the binding signal (normalized occupancy) stood at 0.073.

In the case of CTGAAACC, the binding signal (normalized occupancy) is 0.0744.

As for CGAGACTA, the binding signal (normalized occupancy) stood at 0.0737.

On to AGTTTAGA, for which the binding signal (normalized occupancy) is 0.0768.

With GCTACAAC, the binding signal (normalized occupancy) amounted to 0.0711.

As for GCCTGTAA, the binding signal (normalized occupancy) turned out to be 0.0783.

CATGGAGA: the binding signal (normalized occupancy) came out at 0.0883.

Consider CATTACAG, for which the binding signal (normalized occupancy) was 0.0807.

For the sequence CTAAATGC, the binding signal (normalized occupancy) worked out at 0.0737.

On to AGTCGGTC, for which the binding signal (normalized occupancy) was found to be 0.0712.

Turning to CCGGATAA, the binding signal (normalized occupancy) came out at 0.0763.

For CTACTACC, the binding signal (normalized occupancy) turned out to be 0.0741.

Consider CCCCGAGG, for which the binding signal (normalized occupancy) worked out at 0.0716.

In the case of CGCGAACA, the binding signal (normalized occupancy) is 0.0751.

Take AGCACCCG: the binding signal (normalized occupancy) worked out at 0.0761.

As to CAATACAC, the binding signal (normalized occupancy) was 0.0814.

As to AGTTATAA, the binding signal (normalized occupancy) came out at 0.0756.

For CAGCTCGA, the binding signal (normalized occupancy) was 0.0692.

For the sequence ACGCACCT, the binding signal (normalized occupancy) worked out at 0.0799.

Regarding AGAAGGGG, the binding signal (normalized occupancy) was 0.0791.

As to GACTTGGC, the binding signal (normalized occupancy) is 0.0635.

On to TCAAGAGA, for which the binding signal (normalized occupancy) worked out at 0.0709.

Regarding AAATGTGG, the binding signal (normalized occupancy) came out at 0.088.

Take AAGAGCTC: the binding signal (normalized occupancy) worked out at 0.0682.

As to CTTGATTA, the binding signal (normalized occupancy) was found to be 0.0744.

CAGTAAAG: the binding signal (normalized occupancy) stood at 0.076.

As to ATCTTTAA, the binding signal (normalized occupancy) was 0.0773.

On to AGTACTAT, for which the binding signal (normalized occupancy) stood at 0.0713.

Consider CCATTAGG, for which the binding signal (normalized occupancy) was 0.0714.

Take GAGAATCA: the binding signal (normalized occupancy) stood at 0.073.

Take CGTGCCAC: the binding signal (normalized occupancy) stood at 0.087.

As to ATACCGAG, the binding signal (normalized occupancy) came to 0.0718.

As to TCGATACA, the binding signal (normalized occupancy) turned out to be 0.0806.

As to GCCGAAAC, the binding signal (normalized occupancy) amounted to 0.0728.

As to ACAATGAC, the binding signal (normalized occupancy) was found to be 0.0803.

For the sequence CATTAATA, the binding signal (normalized occupancy) amounted to 0.0783.

On to AGGCCGAG, for which the binding signal (normalized occupancy) was determined as 0.069.

As for GCACCAGC, the binding signal (normalized occupancy) came out at 0.0755.

In the case of CACTAGGA, the binding signal (normalized occupancy) was found to be 0.0706.

Turning to GAGACGAC, the binding signal (normalized occupancy) was determined as 0.071.

In the case of CCGTCGTA, the binding signal (normalized occupancy) is 0.0747.

On to AGCATCGG, for which the binding signal (normalized occupancy) stood at 0.07.

Take AATTCCTA: the binding signal (normalized occupancy) came to 0.0804.

Regarding CCTCCCCC, the binding signal (normalized occupancy) worked out at 0.0844.

Turning to CTGAGCGC, the binding signal (normalized occupancy) came to 0.0695.

For CAATTGCG, the binding signal (normalized occupancy) was 0.0708.

With GGGCGCAA, the binding signal (normalized occupancy) is 0.0657.

Take ATTAACTA: the binding signal (normalized occupancy) came out at 0.0821.

With ACACACGT, the binding signal (normalized occupancy) came to 0.0986.

Consider AGTCACCC, for which the binding signal (normalized occupancy) was determined as 0.0791.

Consider CCGGTGCA, for which the binding signal (normalized occupancy) turned out to be 0.0721.

For the sequence GAGTATAA, the binding signal (normalized occupancy) amounted to 0.0759.

On to GCTCAAGA, for which the binding signal (normalized occupancy) is 0.0721.

For the sequence GGAGTCAA, the binding signal (normalized occupancy) is 0.0703.

Turning to GGGTTATA, the binding signal (normalized occupancy) worked out at 0.0839.

As for CGGATACA, the binding signal (normalized occupancy) came to 0.0858.

As to ATGGCCCA, the binding signal (normalized occupancy) is 0.0782.

For the sequence AGCGGAAC, the binding signal (normalized occupancy) is 0.0655.

As to CGCTACAC, the binding signal (normalized occupancy) came out at 0.079.

As for GCTCCACC, the binding signal (normalized occupancy) turned out to be 0.073.

On to CAGCCTCG, for which the binding signal (normalized occupancy) worked out at 0.0735.

Consider CGAAACGC, for which the binding signal (normalized occupancy) amounted to 0.0714.

For CCCGAGCG, the binding signal (normalized occupancy) worked out at 0.0639.

The record behind these values is article PMC4242493.
